From PubChem BioAssay AID493208 (National Center for Advancing Translational Sciences (NCATS), 2011)
About 340 (0.77%) of roughly 44,000 compounds were called active. Another 5% or so got no clear call; they are omitted. Calls come from the whole dose curve; as a rule, active = well fitted inhibition curve with a large enough effect; inconclusive = small, poorly fitted or top-dose-only effect; inactive = flat fitted curve, though single readings scatter. The list shows a part of the results.

Assay: Acumen qHTS Assay for Inhibitors of the mTORC1 Signaling Pathway in MEF (Tsc2-/-, p53-/-) Cells: Sytravon; note: nearly all actives have a fitted effect of over 50% in size;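 for activity change, negative = inhibition: plate controls were DMSO for no effect and rapamycin for full effect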
Conditions: phospho-rpS6 immunofluorescence/PI, 24 h; series mostly up to 38.3 µM; activity change, negative = inhibition: at the top concentration
Outline: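 Cell-based qHTS: Tsc2-/- p53-/- MEF, 24 h cpd, 37 °C; fix/perm, anti-phospho-S6 Alexa-488 + PI; Acumen 488 nm scan; pS6/PI ratio, % positive cells; rapamycin 7.5 nM = inhibition ref; PI count = viability.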
Potency is the fitted concentration of half-maximal effect.

Activity change, negative = inhibition, inactive:
CCCCN(C)c1ncnc2c1cnn2-c1cccc(Cl)c1 10.4%, CCC(=O)N1CCc2cc(S(=O)(=O)NCCC(=O)Nc3cccc(C)c3C)ccc21 1.31%, COc1cccc(CNc2ccc3c(c2)ncn3C)c1OC 7.41%, Cc1cc(SCC(=O)NCc2ccccc2)nc(=O)[nH]1 -12.3%, CCOc1ccccc1NC(=O)C1CCCN(S(=O)(=O)c2ccc3c(c2)CCCN3C(C)=O)C1 (stereo not drawn) -10.9%, COc1ccc(OC)c(CCNC(=O)C(C)n2nc(C)c3c(C)n(-c4ccc(C)cc4)nc3c2=O)c1 (stereo not drawn) -12.2%, O=C(NCc1ccccc1Br)c1ccc(-n2cnc3cccnc32)cc1 -5.15%, COc1ccc(N(CC(=O)Nc2ccc(Cl)cc2C)S(=O)(=O)c2ccccc2)c(OC)c1 -24.4%, COc1cc(-c2nnc(SCC(=O)N3CCCc4ccccc43)o2)cc(OC)c1OC -1.71%, CCc1ccc(S(=O)(=O)c2nnn3c2nc(Nc2cccc(C)c2C)c2sccc23)cc1 -3.13%, CCCN(C(=O)CCn1cnc2onc(-c3ccc(F)cc3)c2c1=O)c1ccccc1C 3.21%, Cc1ccc(Cl)cc1N1CCN(C(=O)Cn2nc(C)n3c(cc4sccc43)c2=O)CC1 -6.17%, CCOC(=O)c1c(-c2ccccc2)csc1NC(=O)c1cc(-c2cccc(OC)c2)on1 1.45%, Cc1cc(C)cc(C(=O)Nc2c3c(nn2-c2ccccc2C)CS(=O)(=O)C3)c1 -0.924%, O=C(Cn1nc2c(cc1=O)CCCC2)NCc1ccccc1Cl 3.14%, Cc1ccc(C(=O)Nc2nnc(SCc3cc(=O)n4ccc(C)cc4n3)s2)cc1 -11.3%, Cc1cc(C)cc(NC(=O)Cn2nnc(C(=O)NCc3ccco3)c2N)c1 -1.46%, O=C(CN1C(=O)COc2ccc(S(=O)(=O)N3CCCCCC3)cc21)N1CCN(c2ccccc2)CC1 -2.72%, CCC(=O)N1c2nc(C(C)C)nn2C2(CCCCC2)[C@@H]2CCCC[C@@H]21 -4.67%, CCOC(=O)c1cccc(NC(=O)C2CCN(c3nnc(C)c4c(C)n(-c5ccccc5)nc34)CC2)c1 -9.62%, COCCNC(=O)Cn1c(=O)n(-c2ccc(C)c(C)c2)c(=O)c2c3c(sc21)CCCCC3 1.25%, COc1ccc(Cl)cc1NC(=O)C(C)N1Cc2ccccc2C1=O (stereo not drawn) -15.9%, COc1ccc(NC(=O)CN2CCN(S(=O)(=O)c3ccc(Br)cc3)CC2)cc1 -18.2%, COc1ccc(NCc2cccn2-c2nnc(N3CCOCC3)s2)c(OC)c1 4.68%, CCOc1cc(CNC(=O)C(NS(=O)(=O)c2cccs2)C(C)C)cc(OCC)c1OCC (stereo not drawn) 0%, O=C(Cn1c(SCc2cccc(F)c2)nc2ccncc21)Nc1ccc(Cl)cc1F -1.42%, O=C(NNc1ncnc2c1cnn2-c1ccccc1)c1ccccc1 -2.12%, Cc1cn2c(=O)cc(COc3cccc(NC(=O)c4cccc(F)c4)c3)nc2s1 -3.54%, COc1ccc(C(=O)Nc2ccc3nc(N4CCCCC4)cc(C)c3c2)c(OC)c1 2.88%, COc1ccc(N2CCN(S(=O)(=O)CCNC(=O)Cc3ccc(-c4ccccc4)cc3)CC2)cc1 -6.1%, CCOc1ccccc1CNC(=O)c1cccc(NC(=O)c2nsc3ccccc23)c1 1.69%, CCOC(=O)c1c(NC(C)=O)c2c3c(sc2n1Cc1cccc(Cl)c1)CCCC3 0.363%, Cc1ccc(C(CC(=O)Nc2ccc(C)cc2C)N2Cc3ccccc3C2=O)cc1 (stereo not drawn) -2.64%, COc1cc(OC)c(NC(=O)c2cn(C3CCCC3)c(=O)c3c2c2ccccc2n3C)cc1Cl -1.77%, Cc1cc(C)c(S(=O)(=O)Nc2ccc3oc4c(c3c2)C(=O)CC(C)(C)C4)cc1C 1.14%, COc1ccc(-c2cnc(C)o2)cc1S(=O)(=O)Nc1ccc(F)cc1F 0%, CN(C)CCCNC(=O)C(=O)NCC(c1ccc2c(c1)OCO2)N1CCOCC1 (stereo not drawn) 2.95%, Cc1nc2nc(SCC(=O)Nc3ccccc3Cl)nn2c(C)c1Cc1ccccc1 2.05%, COc1cc2c(cc1OC)C(COc1ccc(F)cc1)N(C(=O)c1cccc(F)c1)CC2 (stereo not drawn) 10.4%, CN1CCN(C(=O)Cn2ncc3c4ccccc4n(Cc4ccc(F)cc4)c3c2=O)CC1 0.0796%, O=C(c1ccc(Br)cc1)N(Cc1cccs1)c1ccc(F)cc1 -6.96%, CCOCCn1ccc2c(OCC(=O)Nc3cccc([N+](=O)[O-])c3)cccc2c1=O 2.1%, CCCOc1ccc(C2C(=O)N(C3CCCCCC3)CC(=O)N2CCC2=CCCCC2)cc1OC (stereo not drawn) -2.55%, COc1cccc(C(=O)Nc2ccccc2OCc2cc(=O)n3ccccc3n2)c1 -12.2%, Cc1noc(/C=C/c2cccs2)c1S(=O)(=O)N1CCC(C(=O)NCc2ccc(Cl)cc2)CC1 -2.01%, Cc1cccn2c(=O)c(/C=C(\C#N)c3nc4ccccc4s3)c(Oc3ccc(F)cc3)nc12 -0.95%, Cc1cc(N(CCO)Cc2ccccc2)n2nc(-c3ccc(C(C)(C)C)cc3)nc2n1 5.45%

Potency, active:
CCCc1oc2ccc(NS(=O)(=O)c3ccc(OC)cc3)cc2c1C(=O)OCC 4.14 µM
